Results: PubChem BioAssay AID1963576 (National Center for Advancing Translational Sciences (NCATS), 2024)
Screen size: about 46,000 compounds; about 60 (0.1%) were called active. Another 3% or so got no clear call; they are omitted. Calls follow the shape of the dose curve; as a rule, active = well fitted inhibition curve with a large enough effect; inconclusive = small, poorly fitted or top-dose-only effect; inactive = no such curve, though single readings can be large or run the other way. This is one part of the list.

Assay: Primary qHTS assay for Inhibitors of ovarian cancer metastasis using an organotypic tumor microenvironment (TME) model. Also: nearly all actives have a fitted effect of over 65% in size.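 As to activity change, negative = inhibition: plate controls were DMSO wells for no effect and tomatine positive control wells for full effect.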
Details: SKOV3ip1-GFP adhesion/invasion on 3D omental model, fluorescence; series mostly up to 45.8 µM; activity change, negative = inhibition: at the top concentration
Outline: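 A 3D layer of primary human omental fibroblasts, mesothelial cells, fibronectin and collagen I, grown 48 hr, received SKOV3ip1-GFP cells in serum-free medium plus compounds at 0.36-46 umol/L. After 2 hr RT and 16 hr 37 C, fixed adherent GFP cells were counted; normalized to DMSO and tomatine.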

Activity change, negative = inhibition, inactive:
COc1ccccc1CNC(=O)CN1C(=O)COc2ccc(S(=O)(=O)NC3CCCC3)cc21 6.66%
COC(=O)c1ccccc1NC(=O)c1sc2nc(C)cc(C)c2c1NC(=O)c1ccccc1OC 4.61%
CCOCCCN1C(=O)c2ccccc2CC1(C)C(=O)NC1CCCCC1 (stereo unspecified) -5.42%
Cc1noc(C)c1S(=O)(=O)N(CC(=O)NCCc1ccccc1)c1ccc(C(C)C)cc1 -14.9%
CCOC(=O)c1c(NC(=O)c2ccc(S(=O)(=O)N(C)C3CCCCC3)cc2)sc2c1CCN(C(C)C)C2 -0.597%
Cc1ccc(-c2cn3c(n2)sc2cc(C(=O)NCCC4=CCCCC4)ccc23)cc1 2.68%
COc1ccc(-c2nc(S(=O)(=O)c3ccc(Cl)cc3)c(NCc3ccccc3)o2)cc1 7.17%
COc1ccc(CNC(=O)CN2C(=O)CSc3ccc(S(=O)(=O)N4CCC(C)CC4)cc32)cc1 6.64%
CC1CCN(S(=O)(=O)c2nnc(NC(=O)c3cccc(Cl)c3)s2)CC1 0.329%
Cc1csc2nc(COc3cccc(NC(=O)c4ccccc4F)c3)cc(=O)n12 -9.85%
CCN(CC)CCCNc1ncnc2c1cnn2-c1ccc(C)c(C)c1 14.6%
Cc1nn(CC(=O)N2CCN(c3ccc(Cl)cc3)CC2)c(=O)c2cccn12 -4.81%
COc1ccc(OCC(O)Cn2c(NCCO)nc3c2c(=O)n(C)c(=O)n3C)cc1 (stereo unspecified) -4.13%
CCOC(=O)CSc1nc2c(sc3ccccc32)c(=O)n1CCO 0.925%
CCOc1ccc(NS(=O)(=O)c2ccc3c(c2)CCCN3C(=O)C2CCC2)cc1 3.09%
Cc1ccc(NC(=O)CSc2cn(CC(=O)N3CCCC3)c3ccccc23)cc1Cl -1.62%
Cc1ccc(-n2c(=O)c3c(c4cc(C)ccc4n3C)n(CC(=O)N3CCCC3)c2=O)cc1 -5.67%
Cc1ccc2c(=O)cc(C(=O)Nc3ccc(S(=O)(=O)Nc4ncccn4)cc3)oc2c1C -1.44%
Cc1cc(C)cc(NC(=O)Cn2cc(C(=O)C3CCCCC3)c3ccccc32)c1 5.7%
O=C(CSc1nc2c([nH]c3ccccc32)c(=O)n1-c1ccc(Cl)cc1)c1ccccc1 -2.03%
Cc1ccc2nc(COc3ccccc3NC(=O)c3ccc(F)cc3)cc(=O)n2c1 6.31%
COc1ccc(NCc2cccn2-c2nnc(N3CCCCC3)s2)cc1OC -2.63%
Cc1cc(C)c(NC(=O)C2CCN(c3nn4c(=O)cc(C)nc4s3)CC2)c(C)c1 13.9%
CN1CCc2c(sc3c2C(=O)NC(c2ccc(C(C)(C)C)cc2)N3)C1 (stereo unspecified) -2.43%
O=C(Nc1cnc(N2CCN(c3ccccc3)CC2)c(C(=O)O)c1)c1cccs1 8.32%
Cc1cccc(-c2noc(-c3ccc(N4CCOCC4)c([N+](=O)[O-])c3)n2)c1 6%
COc1ccc(Cn2c(SCC(=O)N(C)Cc3ccccc3)nc3ccccc32)cc1 -3.3%
CC(C)(C)C1CCc2oc3ccc(NS(=O)(=O)c4ccc(C(=O)O)cc4)cc3c2C1 (stereo unspecified) -0.134%
CC1=C(C(=O)N2CCN(c3cccc(Cl)c3)CC2)C2(CCCCC2)OC1=O 6.71%
CCOC(=O)C1CCN(c2nc3c(S(=O)(=O)c4ccc(C)c(C)c4)nnn3c3ccc(Cl)cc23)CC1 1.27%
COc1ccc(C2N=C(N)Nc3nc4ccccc4n32)cc1 (stereo unspecified) -8.1%
CC1CCCCN1C(=O)c1cc(-c2ccc(Br)cc2)on1 (stereo unspecified) -5.89%
Cc1ccc(OCc2nc(-c3ccc(C(=O)NCc4ccc(OC(C)C)cc4)cc3)oc2C)cc1 -10.9%
Cc1cccn2c(=O)c(C(=O)NC(C)c3ccccc3)cnc12 (stereo unspecified) -0.884%
CCN(CC)S(=O)(=O)c1ccc2nc(NC(=O)c3cncc(Br)c3)sc2c1 -26.5%
CCN(C(=O)c1cc2c(=O)oc3ccc(C)cc3c2s1)c1ccccc1C 8.04%
Cc1cc(C)c(NC(=O)C(C)n2nnc3sc4c(c3c2=O)CCCC4)c(C)c1 (stereo unspecified) 2.39%
COc1ccc(Nc2oc(-c3ccc(COc4ccccc4C)o3)nc2C#N)cc1 3.35%
Cc1ccc(C(=O)c2cn(Cc3ccc(Cl)cc3)c3nc(C)ccc3c2=O)cc1 -19%
Cc1cc(C)cc(N2C(=O)N(Cc3cccc(F)c3)c3ccccc3S2(=O)=O)c1 -12.3%
Cc1nc2scc(C)n2c(=O)c1S(=O)(=O)NCCc1ccccc1 3.23%
CCOc1ccc(N(C)S(=O)(=O)c2ccc3[nH]cc(C(=O)NCc4ccccc4)c(=O)c3c2)cc1 9.71%
CN(C)c1ccc(CNC(=O)CN2CCSc3ccc(S(=O)(=O)N(C)C)cc32)cc1 -0.291%
Cc1ccc(CNC(=O)c2cc(-c3ccc(Cl)cc3)on2)cc1 -2.56%
CCN1CCN(c2ncc3c(n2)CC(c2ccccc2O)CC3=O)CC1 (stereo unspecified) -3.04%

outcome, inactive:
COc1ccc(NC(=O)C2=C(C)Nc3ncnn3C2c2cccn2C)cc1 (stereo unspecified)
Fc1cccc(-c2nnn3c2nc(NC2CCCCC2)c2ccccc23)c1
CC(=O)Nc1ccc(S(=O)(=O)NC2=NCN(CCO)CN2)cc1
COc1ccc(CNC(=O)C2CCC(CNS(=O)(=O)c3ccc4c(c3)CCCC(=O)N4)CC2)cc1 (stereo unspecified)
COc1ccc(/C=C/C(=O)Nc2nc(-c3cccs3)ns2)cc1
Cc1ccc(CCNc2ncnc3onc(-c4ccc(Cl)cc4)c23)cc1
COc1ccc(NC(=O)CSc2nc3c(oc4ccccc43)c(=O)n2Cc2ccco2)cc1Cl
COc1ccccc1CNC(=O)c1cn(C)c2ccc(S(=O)(=O)N(C)C3CCCCC3)cc2c1=O
CCOc1ccc(NC(=O)c2c(NC(=O)Cc3ccccc3)sc3c2CCCCC3)cc1
O=C(CSC1=Nc2ccccc2N=C(c2ccc(F)cc2)C1)Nc1ccccc1
Cc1ccc(NC(=O)c2cc(S(=O)(=O)NCCc3ccc(Cl)cc3)ccc2F)cc1
CC1CCN(S(=O)(=O)c2ccc3c(ccc(=O)n3CC(=O)Nc3cccc(F)c3)c2)CC1
Cc1ccc(NC(=O)Cn2c(=O)nc(-c3ccccc3)c3ccccc32)cc1F
Cc1ccc(C)c(CN2C(=O)c3ccccc3S(=O)(=O)c3ccc(C(=O)NCCC4=CCCCC4)cc32)c1
COc1ccc(N2CCN(C(=O)CSc3n[nH]c(-c4ccccc4Cl)n3)CC2)cc1
Cc1ccc2oc(=O)c(S(=O)(=O)c3ccc(C(C)(C)C)cc3)cc2c1
